Test results: PubChem BioAssay AID720542 (National Center for Advancing Translational Sciences (NCATS), 2013)
Values joined by “and” are separate entries in the source; they are usually repeats but may differ in a detail not shown here. Identical values can stand only once. About 740 (0.21%) of roughly 360,000 compounds were called active. Inconclusive results, whose numbers are uncertain, are shown with a selection of clear calls. The call rests on the fitted dose curve; in most records, active means well fitted inhibition curve with a large enough effect; inconclusive means small, poorly fitted or top-dose-only effect; inactive means no such curve, though single readings can be large or run the other way. No potency is given beside an inconclusive call; the fits are too rough.

The compounds below were run on Plasmodium falciparum AMA1 (3D7) - RON2 peptide interaction (assay: qHTS for Inhibitors of AMA1-RON; Towards Development of Antimalarial Drug Lead: Primary Screen). Conditions: AlphaScreen AMA1-biotinylated RON2 peptide binding; activity change, negative = inhibition: at 58.2 µM (top of the series) unless noted.
How it was run: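 AMA1 (3D7) with his tag at 25 nM final met compounds first, then biotinylated RON2 peptide at 25 nM; detection used donor plus acceptor beads, 10 µg/mL apiece, read by AlphaScreen after 30 min at room temperature.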
Further: nearly all actives have a fitted effect of over 45% in size.
Potency means the concentration at half of the fitted maximal effect; tags describe the fitted curve by direction and shape.
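Wherever activity change, negative = inhibition is given: 0% = vehicle wells and -100% = peptide control.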

Question: `Cc1ccc(C(=O)OCC(=O)NCc2ccco2)cc1` was tested. Which Potency did it give?
Answer: inactive

Question: Which Potency does the source give for `COc1ccc(OC)c(NC2=C(Cl)C(=O)N(Cc3ccccc3)C2=O)c1` here?
Answer: active: 12.6 µM

Question: `CN(C)[C@@H]1C(=O)C(C(N)=O)=C(O)[C@@]2(O)C(=O)C3=C(O)c4c(O)cccc4[C@@](C)(O)[C@H]3[C@H](O)[C@@H]12` was tested. Which Potency did it give?
Answer: active: 1.26 µM and active: 1 µM

Question: How did the Potency turn out when `COC(=O)CCCC(=O)N1CCCC(CCC(=O)NCc2ccc(F)c(F)c2)C1` (centres undefined) was run?
Answer: inactive

Question: How did the Potency turn out when `O=[N+]([O-])c1cc([N+](=O)[O-])c2cccnc2c1Oc1ccccc1O` was run?
Answer: inconclusive [inhibitor, partial curve]

Question: For `O=C(O)c1ccc(N/N=C/c2ccc(-c3ccccc3)cc2)cc1`, which Potency is on record?
Answer: inconclusive [inhibitor, partial curve]

Question: With `CCN(CC)c1ccc(NC(=O)c2cc(Cl)ccc2OC)cc1` as the compound, how does the Potency read?
Answer: inconclusive [inhibitor, partial curve]

Question: `CC(=O)c1ccc(C(=O)N2CCc3c([nH]c4ccccc34)C2c2cccc(C)n2)s1` (centres undefined) was tested. Which Potency did it give?
Answer: inconclusive [inhibitor, partial curve]

Question: Which Potency does the source give for `c1ccc(CSc2ccc(-c3ccc4c(c3)OCO4)nn2)cc1` here?
Answer: inconclusive [inhibitor, full curve, poor fit]

Question: For `CC1(C)C2CCC(C2)C1(C)NC(=O)CNCc1cccs1` (centres undefined), which Potency is on record?
Answer: inconclusive [inhibitor, single point]

Question: `Cc1ccc(S(=O)(=O)N2[C@@H](c3ccc(Br)cc3)C(C(=O)O)=CC[C@H]2c2ccc3c(c2)OCO3)cc1` was tested. Which Potency did it give?
Answer: inactive

Question: How did the Potency turn out when `O=C(NN1C(=O)/C(=C/C=C/c2ccco2)SC1=S)c1ccncc1` was run?
Answer: active: 5.62 µM

Question: `O=C(CCc1nnc2n(Cc3ccccc3)c(=O)c3ccccc3n12)NCCN1CCOCC1` was tested. Which Potency did it give?
Answer: inactive

Question: How did the Potency turn out when `CN1C(=O)C(c2cn(C)c3ccccc23)(c2cn(C)c3ccccc23)c2cc(F)ccc21` was run?
Answer: inconclusive [inhibitor, full curve, poor fit]

Question: How did the Potency turn out when `CCOc1cc2c(cc1OCC)-n1cccc1C(c1ccc(C(C)C)cc1)NC2` (centres undefined) was run?
Answer: inconclusive [inhibitor, single point]

Question: With `O=C1C(=Cc2ccco2)CCCC1=Cc1ccco1` as the compound, how does the Potency read?
Answer: inconclusive [inhibitor, partial curve]

Question: Which Potency does the source give for `Nc1ccc2c(c1)Nc1ccccc1CC2` here?
Answer: inconclusive [inhibitor, single point]

Question: With `Cc1ccc(-c2n[nH]c(=O)c3ccccc23)cc1N` as the compound, how does the activity change, negative = inhibition read?
Answer: inconclusive: -1.14% [inhibitor]

Question: How did the Potency turn out when `Cc1ccc(S(=O)(=O)N2c3ccccc3-c3c(ssc3=S)C2(C)C)cc1` was run?
Answer: inconclusive [inhibitor, partial curve]
